Results on 56 compounds are retold here after PubChem BioAssay AID463173 (ICCB-Longwood Screening Facility, Harvard Medical School, 2010).

Hit rate of the full screen: of about 52,000 compounds, about 4,300 (8.3%) were called active. Rule as the data show it: active = survival mostly below about 52% (no sharp cut-off); inactive = mostly above about 56%. The list shows a part of the results.

This test has as its system DeltatarO mutant. As to the kind of experiment: S. aureus survival, RN4220 and DeltatarO strains – OD600, teichoic acid synthesis inhibitors, primary screen (AID 463173). The note with it: S. aureus RN4220 wild type/DeltatarO growth, OD600, 18 h, active compounds read low, screened at 18.75 µg/mL (by protocol).
Consider `CCOC(=O)c1c(C)n(-c2ccccc2)c2ccc(OC(=O)c3ccc(OCC)c(OCC)c3)cc12`, for which the survival is inactive: 136%.
In the case of `Cc1cccc(-c2noc(-c3ccc(NCC4CCCO4)c([N+](=O)[O-])c3)n2)c1` (stereo unspecified) it was inactive: 103%.
Take `CCCOc1ccc(OC(=O)c2c(-c3ccccc3Cl)noc2C)cc1`: the survival is inactive: 84%.
In the case of `COc1ccc(-c2nn3c(-c4ccc(C)cc4)nnc3c3ccccc23)cc1` it was inactive: 77%.
As to `COc1cccc(CN2C(=O)c3ccccc3Sc3ccc(C(=O)NCCc4ccc(Cl)cc4)cc32)c1`, the survival is inactive: 80%.
With `COc1ccc(NC(=O)c2ccc3c(c2)c(C)c(C)n3Cc2ccc(F)cc2)c(OC)c1`, the survival was inactive: 72%.
Turning to `CCc1ccc(OCC(=O)N(Cc2ccco2)Cc2ccco2)cc1`, the survival was inactive: 57%.
Turning to `COc1ccc(CNC(=O)CCc2nc3cccnc3n2Cc2ccccc2)cc1`, the survival was inactive: 120%.
With `CCOc1ccc(CCNC(=O)C(C)n2nc(C)n3c(cc4occc43)c2=O)cc1OCC` (stereo unspecified) the figure was inactive: 74%.
Regarding `Cc1ccc(Cl)cc1N1CCN(C(=O)c2cn(C)c3ccc(S(=O)(=O)N(C)C4CCCCC4)cc3c2=O)CC1`, the survival is inactive: 107%.
Consider `Cc1ccc(NC(=O)Cn2c(=O)n(CCC(=O)NCCc3ccccc3)c(=O)c3ccccc32)cc1`, for which the survival was inactive: 94%.
With `O=C(Cn1cnc(S(=O)(=O)N2CCCC2)c1)Nc1ccccc1`, the survival is inactive: 113%.
In the case of `CC(=O)Nc1ccc(NC(=O)C(Cc2ccccc2)N2Cc3ccccc3C2=O)cc1` (stereo unspecified) it was inactive: 82%.
For the compound `Cc1cccc(N2CCN(C(=O)c3c(C)oc4nc(C)nc(N5CCCC5)c34)CC2C)c1` (stereo unspecified), the survival was inactive: 95%.
For the compound `COc1cccc(-n2c(SCC(=O)N3CCCCC3)nc3c([nH]c4ccccc43)c2=O)c1`, the survival was active: 20%.
`CN(C)S(=O)(=O)c1ccc2c(c1)N(CC(=O)N1CCCCC1)CCS2`: the survival is inactive: 72%.
In the case of `Cc1ccc(-c2nnc(Nc3ccc(Cl)cc3)c3ccccc23)cc1S(=O)(=O)N1CCOCC1`, the survival is inactive: 67%.
On to `Cn1cc(S(=O)(=O)c2ccccc2)c(=O)c2cc(F)c(N3CCN(c4ccc(F)cc4)CC3)cc21`, for which the survival is inactive: 105%.
Consider `O=C(Nc1c(C(=O)N2CCC(N3CCCCC3)CC2)oc2ccccc12)c1c(F)cccc1F`, for which the survival is inactive: 78%.
As for `Cc1cc(C)c2c(-n3cccc3)c(C(=O)NCCCN3CCCCC3)sc2n1`, the survival is inactive: 95%.
With `CCN1CCN(Cc2nc3cc(NC(=O)c4ccccc4[N+](=O)[O-])ccc3n2CC)CC1` the figure was inactive: 78%; with `Cc1ccc(C)c(NC(=O)C2CCN(c3nn4c(=O)cc(C)nc4s3)CC2)c1`, inactive: 106%; with `COc1ccc(NC(=O)c2ccc3c(c2)c(C)c(C)n3Cc2ccc(F)cc2)cc1`, inactive: 84%.
`O=C(CCc1ccccc1)NCCc1csc(-c2cccc(F)c2)n1`: the survival was inactive: 81%.
For `Cc1ccc(C)c(CN2C(=O)c3ccccc3Sc3ccc(C(=O)NCc4cccs4)cc32)c1`, the survival was inactive: 87%.
In the case of `CC1CCC(N2CC(=O)N(C3CCCC3)C(c3ccc(Cl)cc3)C2=O)CC1` (stereo unspecified), the survival is inactive: 79%.
On to `CC(=O)c1cccc(NC(=O)c2noc3c2CSc2ccccc2-3)c1`, for which the survival was inactive: 66%.
In the case of `COc1ccccc1-c1cc(NC(=O)COc2ccccc2Cl)n(-c2ccccc2)n1`, the survival was inactive: 77%.
As for `Cc1ccc(-c2[nH]c3ccccc3c2SCCNC(=O)c2ccc(S(=O)(=O)N3CCOCC3)cc2)cc1`, the survival was inactive: 67%.
Regarding `Cc1ccccc1OCCSc1nc(C)c(Cc2ccccc2)c(=O)[nH]1`, the survival is inactive: 97%.
Take `O=C(C1CCCN(S(=O)(=O)c2ccccc2)C1)N1CCCc2ccccc21` (stereo unspecified): the survival is inactive: 91%.
`COc1ccc(-c2nn(C)c3sc(C(=O)N4CCN(c5ccccc5F)CC4)cc23)cc1OC`: the survival was inactive: 95%.
`CC(=O)Nc1cc(C)ccc1C`: the survival is inactive: 88%.
In the case of `COc1cccc(CNC(=O)C(C)n2ccc3cc(S(=O)(=O)N4CCCCCC4)ccc32)c1` (stereo unspecified), the survival was inactive: 102%.
`CCn1c2c(c(=O)n3ncc(C(=O)Nc4cccc(Cl)c4C)c13)CN(Cc1ccc(OC)cc1)CC2`: the survival was inactive: 68%.
In the case of `COc1ccc(CNC(=O)C2CCN(c3nc4ccc(C)cc4[nH]3)CC2)cc1` it was inactive: 94%; in that of `CCOC(=O)c1c(C)[nH]c(C)c1S(=O)(=O)N1CCC(C(=O)NCc2ccc(C)cc2)CC1`, inactive: 72%.
Consider `CCN1C(=O)CC(n2c(C)nc3ccccc32)C1=O` (stereo unspecified), for which the survival is inactive: 96%.
Take `O=c1c2c([nH]n1-c1ccccc1)CCCC2`: the survival was inactive: 101%.
In the case of `C=C(C)CSc1nc2sc3c(c2c(=O)n1CCCC)CCCC3`, the survival is active: -3%.
In the case of `Cc1cc(C)cc(NC(=O)CSc2nncn3c2cc2occc23)c1` it was active: 46%.
As to `O=C(O)Cn1ccnc1`, the survival is inactive: 86%.
As for `COc1ccc(S(=O)(=O)c2cn(Cc3ccccc3)c3cc(N4CCCC4)c(F)cc3c2=O)cc1`, the survival is inactive: 91%.
As for `CCCOc1cccc(C(=O)Nc2ccc(-c3nc4ccccc4s3)c(Cl)c2)c1`, the survival was inactive: 58%.
In the case of `COc1ccc(CCNC(=O)CCCCn2c(=O)c3ccccc3n(CC(=O)Nc3ccccc3C)c2=O)cc1OC`, the survival is inactive: 111%.
On to `Cc1ccc(S(=O)(=O)N(C#N)c2nc(C)cc(C)n2)cc1`, for which the survival is inactive: 71%.
As for `O=C(CCNS(=O)(=O)c1ccc2c(c1)CCN2C(=O)C1CC1)N1CCN(c2ccc(F)cc2)CC1`, the survival was inactive: 117%.
On to `CCc1ccccc1NC(=O)Cn1c(=O)nc(-c2ccccc2)c2ccccc21`, for which the survival is inactive: 90%.
`COc1ccc(CCNC(=O)CCn2c(=O)c3ccccc3n(Cc3ccc(Cl)cc3)c2=O)cc1OC`: the survival was inactive: 119%.
With `COC(=O)c1ccc(-n2c(/C=C\c3cccc(Br)c3)nc3ccccc3c2=O)cc1` the figure was inactive: 70%; with `CCc1nc2ccccc2n1CCCCOc1ccccc1C`, active: 0%.
Consider `Cc1ccc(S(=O)(=O)C(CNC(=O)C(=O)NCCc2ccccc2)c2ccco2)cc1` (stereo unspecified), for which the survival is inactive: 87%.
Regarding `CC1=CS(=O)(=O)CC1Sc1ncn[nH]1` (stereo unspecified), the survival was inactive: 104%.
In the case of `CCCn1c(SCC(O)c2cccc(OC)c2)nc2ccccc21` (stereo unspecified), the survival is inactive: 84%.
With `O=C(Nc1ccc(N2CCN(CCOc3ccc(Cl)cc3)CC2)c(C(=O)O)c1)c1ccc(F)cc1` the figure was active: 20%; with `COC(=O)c1cn(CC(=O)Nc2ccc(F)cc2)c2ccccc12`, inactive: 85%.
